Reference: PubChem BioAssay AID485294 (National Center for Advancing Translational Sciences (NCATS), 2010)
The campaign covered roughly 370,000 compounds. About 150 (0.041%) were called active. The inconclusive results got no clear call from the source; some entries with a clear call stand among them for comparison. Calls come from the whole dose curve; as a rule, active = well fitted inhibition curve with a large enough effect; inconclusive = small, poorly fitted or top-dose-only effect; inactive = flat fitted curve, though single readings scatter. Potencies of inconclusive entries are left out as doubtful fits.
Note: nearly all actives have a fitted effect of over 25% in size.
Potency is the fitted concentration of half-maximal effect; tags give direction and shape of the fitted curve.
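Throughout, for activity change, negative = inhibition: 0% = no-compound wells and -100% = no-enzyme wells.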

Each compound was assayed against Beta-lactamase (Escherichia coli (strain K12)) (UniProt P00811) (assay: qHTS Inhibitors of AmpC Beta-Lactamase (assay with detergent)). Conditions: AmpC hydrolysis of nitrocefin, absorbance 480 nm, 0.01% Triton; activity change, negative = inhibition: at 114 µM (top of the series).
UniProt P00811, sequence (P00811 whole entry, looked up): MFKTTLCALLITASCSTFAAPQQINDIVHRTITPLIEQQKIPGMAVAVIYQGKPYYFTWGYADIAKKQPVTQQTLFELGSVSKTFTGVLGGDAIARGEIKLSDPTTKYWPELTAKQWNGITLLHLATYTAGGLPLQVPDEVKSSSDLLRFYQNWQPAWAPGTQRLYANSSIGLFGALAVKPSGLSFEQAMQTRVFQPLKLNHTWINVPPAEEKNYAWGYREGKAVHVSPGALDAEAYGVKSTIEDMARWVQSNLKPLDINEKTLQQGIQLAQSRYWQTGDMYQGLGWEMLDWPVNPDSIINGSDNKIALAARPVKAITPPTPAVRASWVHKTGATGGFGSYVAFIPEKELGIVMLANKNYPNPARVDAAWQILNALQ
Method in brief: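 AmpC (5.3 nM in the dispensed reagent) in 20 mM phosphate pH 7.0 with 0.01% (detergent screen) or 0.0001% Triton X-100 was preincubated with compounds for 15 min at room temperature. Nitrocefin was then added from an 800 uM solution, and hydrolysis was followed at 480 nm.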
With `O=C(CN(Cc1cccs1)C(=O)CNS(=O)(=O)c1ccc(F)cc1)NCc1ccco1` the Potency was inconclusive [inhibitor, partial curve, poor fit].
In the case of `Cc1ccc(-c2nc(SC(C)C(=O)c3c(N)n(C)c(=O)n(C)c3=O)n[nH]2)cc1` (stereo unspecified), the “activity change, negative = inhibition” value is reported as inactive: -3.17%.
`COc1ccc(CNC(=O)C(C)N(Cc2ccccc2OC)C(=O)c2snc(C(N)=O)c2N)cc1` (stereo unspecified) was tested, and the “activity change, negative = inhibition” value was inactive: 2.22%.
In the case of `Cc1csc2ncc(C(=O)N(Cc3ccccc3)c3ccccn3)c(=O)n12`, the Potency is reported as inconclusive [inhibitor, full curve].
In the case of `COCCCNC(=O)c1c(-c2ccccc2)c(-c2ccccc2)nn(C)c1=O`, the “activity change, negative = inhibition” value is reported as inactive: -2.04%.
With `Cc1cccc(/C=C/c2nc3ccccc3c(=O)n2Cc2ccccc2)c1` the “activity change, negative = inhibition” value was inactive: -3.16%.
With `COC(=O)c1ccc(NC(=O)C2CCN(C(=O)c3cc(OC)c(OC)c(OC)c3)CC2)cc1` the Potency was inconclusive [inhibitor, full curve, poor fit].
In the case of `COc1ccccc1NS(=O)(=O)c1cc2c3c(c1)CCN3C(=O)CC2`, the Potency is reported as inconclusive [inhibitor, full curve].
`NNC(=O)Cn1c(-c2ccccc2)cc2ccccc21` was tested, and the Potency was inconclusive [inhibitor, full curve, poor fit].
With `Cc1ccc(NC(=O)CSc2nnc(Cc3ccccc3)c(=O)[nH]2)c(C)c1` the Potency was inconclusive [inhibitor, full curve, poor fit].
`CCOC(=O)C1=C(COC(=O)C2(C)CC2(Cl)Cl)NC(=O)NC1c1ccc(OC)cc1` (stereo unspecified) was tested, and the “activity change, negative = inhibition” value was inactive: 0.171%.
With `COC(=O)c1ccc(COc2ccccc2/C=C(\C#N)C(=O)Nc2c(C)cccc2C)cc1` the Potency was inconclusive [inhibitor, full curve].
In the case of `CC1Cc2ccccc2N1C(=O)C1CCCN1S(=O)(=O)c1ccc(Cl)cc1` (stereo unspecified), the Potency is reported as inconclusive [inhibitor, full curve, poor fit].
In the case of `CSc1nc2ccccc2c(=O)n1N`, the Potency is reported as inconclusive [inhibitor, full curve, poor fit].
For `Cc1cccc(N2C(=O)N3[C@H](c4ccc(Br)cc4)[C@@H]4C(=O)N(C(C)(C)C)C(=O)[C@@H]4[C@]3(C)C2=O)c1`, the Potency was inconclusive [inhibitor, full curve, poor fit].
`COc1ccc(OC)c(CNC(=O)C2CCN(C(=O)N(C)C)CC2)c1` was tested, and the Potency was inconclusive [inhibitor, full curve].
In the case of `C=CCn1cc(-c2ccccc2)cc(C#N)c1=O`, the Potency is reported as inconclusive [inhibitor, full curve, poor fit].
With `CCO[C@H]1OC(C(=O)Nc2ccccc2)=C[C@@H](C)[C@@H]1CCCO` the “activity change, negative = inhibition” value was inactive: 5.16%.
In the case of `Cn1cnnc1SCC(=O)c1cc2ccccc2o1`, the Potency is reported as inconclusive [inhibitor, full curve, poor fit].
For `O=C(Nc1ccc(F)cc1F)c1cccc2c1C(=O)N(C1CCCCC1)C2`, the “activity change, negative = inhibition” value was inactive: -0.12%.
In the case of `CN(C)c1ccc(NC(=O)Nc2cccc(Cl)c2)cc1`, the Potency is reported as inconclusive [inhibitor, full curve, poor fit].
`O=C(COC(=O)c1ccc(-c2ccc([N+](=O)[O-])cc2)o1)NC(=O)NC1CCCCC1` was tested, and the “activity change, negative = inhibition” value was inactive: 1.37%.
`Cn1c(CN2CCCC2)nc2cc(NS(=O)(=O)c3ccc(Cl)cc3)ccc21` was tested, and the Potency was inconclusive [inhibitor, full curve, poor fit].
`COC(=O)Cc1ccc(NC(=S)NCc2ccc(Cl)cc2)cc1` was tested, and the Potency was inconclusive [inhibitor, full curve, poor fit].
`CCOC(=O)N/N=C\c1ccccc1OC/C=C/c1ccccc1` was tested, and the “activity change, negative = inhibition” value was inactive: -8.99%.
`Cc1cc(C)c(O)c(-c2cc(C(=O)NCc3ccccc3)[nH]n2)c1` was tested, and the Potency was inconclusive [inhibitor, full curve, poor fit].
In the case of `Cc1cccc(Nc2nc(NCC3CCCO3)nc(N)c2[N+](=O)[O-])c1` (stereo unspecified), the Potency is reported as inconclusive [inhibitor, full curve].
For `Cc1ccc(C(=O)NCC(=O)OCC(=O)N(CC(C)C)c2c(N)n(Cc3ccccc3)c(=O)[nH]c2=O)cc1`, the Potency was inconclusive [inhibitor, partial curve].
With `CCCN(CCC)C(=O)CSc1nc2c(sc(=S)n2-c2ccc(OCC)cc2)c(=O)[nH]1` the Potency was inconclusive [inhibitor, single point].
`CC(C)(O)C#Cc1ccc(C(=O)NCc2ccccc2F)cc1` was tested, and the Potency was inconclusive [inhibitor, full curve, poor fit].
In the case of `CC(C)C[C@H](NC(=O)C1CC(=O)N(c2ccc(F)cc2)C1)C(=O)N1CCCCC1` (stereo partly specified), the Potency is reported as inconclusive [inhibitor, partial curve].
For `Cc1ncoc1C(=O)Nc1nccs1`, the “activity change, negative = inhibition” value was inactive: 4.7%.
In the case of `Cc1ccc(Cl)cc1-n1c(CCC(=O)O)ccc1-c1cccs1`, the “activity change, negative = inhibition” value is reported as inactive: 1.12%.
In the case of `CCOC(=O)N1CCN(CC(=O)Nc2sccc2C#N)CC1`, the Potency is reported as inconclusive [inhibitor, partial curve, poor fit].
`N#CSCC(=O)c1cccc2ccccc12` was tested, and the Potency was inconclusive [inhibitor, partial curve, poor fit].
With `CN1CCN(C(=O)C2CC(=O)N(c3ccc(F)c(Cl)c3)C2)CC1` (stereo unspecified) the Potency was inconclusive [inhibitor, full curve].
`CCc1cccc(NC(=O)Cn2c(=O)n(-c3ccccc3C)c(=O)c3c2c2cc(C)ccc2n3C)c1` was tested, and the “activity change, negative = inhibition” value was inactive: -0.555%.
For `COc1ccc(-c2nn(CCC#N)cc2C(=O)O)cc1`, the Potency was inconclusive [inhibitor, single point].
For `O=C(c1cccs1)N1CCC2(O)CCCCC2C1c1ccc(F)cc1` (stereo unspecified), the Potency was inconclusive [inhibitor, partial curve, poor fit].
For `NC(N)=NC(N)=Nc1ccc(SC(F)(F)F)cc1`, the Potency was inconclusive [inhibitor, full curve, poor fit].
In the case of `COc1cc(OC)cc(C(=O)NCC(=O)OCc2csc(-c3ccccc3)n2)c1`, the Potency is reported as inconclusive [inhibitor, full curve].
`Cc1ccnc(NS(=O)(=O)c2ccc(NC(=O)CCOc3ccccc3)cc2)n1` was tested, and the Potency was inconclusive [inhibitor, full curve].
With `COc1ccc(OC)c(S(=O)(=O)N2CCCC(C(=O)N3CCC(C(N)=O)CC3)C2)c1` (stereo unspecified) the Potency was inconclusive [inhibitor, partial curve, poor fit].
`Cc1c(CC(=O)O)c(=O)oc2c(C)c(OCc3ccc(F)cc3F)ccc12` was tested, and the “activity change, negative = inhibition” value was inactive: 4.36%.
For `c1coc(-c2ccnc(-n3cccc3)n2)c1`, the Potency was inconclusive [inhibitor, full curve, poor fit].
For `O=C(Nc1ccccc1)C1=C[C@@H](c2coc3ccccc3c2=O)C[C@@H](OCc2ccc(CO)cc2)O1`, the “activity change, negative = inhibition” value was inactive: 6.87%.
In the case of `COc1ccc(C(=O)NCC(=O)N2CCC3(CC2)NCCc2[nH]cnc23)cc1`, the Potency is reported as inconclusive [inhibitor, partial curve, poor fit].
For `O=C(CCNc1ccc(Cl)cc1)c1cccs1`, the Potency was inconclusive [inhibitor, single point].
With `COC(=O)C(NC(=O)CCC(=O)N[C@@H](C(=O)OC)c1ccccc1)c1ccccc1` (stereo partly specified) the Potency was inconclusive [inhibitor, partial curve, poor fit].
For `CCOC(=O)N/N=C\c1cccc(OC)c1OC/C=C/c1ccccc1`, the “activity change, negative = inhibition” value was inactive: -11.1%.
`CC1(C)CC2CC(C)(CN2S(=O)(=O)c2ccc(C(=O)Nc3cc(S(=O)(=O)N4CCOCC4)ccc3Cl)cc2)C1` (stereo unspecified) was tested, and the “activity change, negative = inhibition” value was inactive: -1.97%.
With `O=C(Nc1ccc2c(c1)OCCO2)NC1CCCCC1` the Potency was inconclusive [inhibitor, partial curve].
In the case of `CCN(c1ccc(NC(=O)COC(=O)c2ccc(C)s2)cc1)C(C)C`, the “activity change, negative = inhibition” value is reported as inactive: -4.5%.
With `CCCN(CCC)CCCNC(=O)CC1Nc2ccccc2NC1=O` (stereo unspecified) the Potency was inconclusive [inhibitor, full curve, poor fit].
In the case of `O=C(NCc1cn2ccsc2n1)Nc1ccc(Cl)cc1`, the Potency is reported as inconclusive [inhibitor, full curve, poor fit].
With `Cc1cccc(N2CCN(S(=O)(=O)c3c(C)[nH]c(C)c3C(=O)N3CCCCC3)CC2)c1C` the “activity change, negative = inhibition” value was inactive: 10.9%.
`COc1ccc(N2CCN(C(c3cc4ccc(C)cc4[nH]c3=O)c3nnnn3C3CCCC3)CC2)cc1` (stereo unspecified) was tested, and the Potency was inconclusive [inhibitor, full curve, poor fit].
`C=CCn1c(O)c(/C=N/N2CCCCC2c2cccnc2)c(=O)[nH]c1=S` (stereo unspecified) was tested, and the Potency was inconclusive [inhibitor, full curve, poor fit].
In the case of `CN(C)S(=O)(=O)Oc1cccc(C(=O)Nc2ccc(Cl)c(Cl)c2)c1`, the Potency is reported as inconclusive [inhibitor, full curve, poor fit].
With `O=C(c1cc2cc(Cl)ccc2o1)N1CCCCCC1` the Potency was inconclusive [inhibitor, partial curve, poor fit].
In the case of `O=C(c1cnn2c1NC(c1ccco1)CC2C(F)(F)F)N1CCN(c2cccc(Cl)c2)CC1` (stereo unspecified), the “activity change, negative = inhibition” value is reported as inactive: 3.81%.
For `CC(C)C(=O)NCc1cc(-c2ccccc2)no1`, the Potency was inconclusive [inhibitor, full curve, poor fit].
With `Cc1cc(OCCOCCNC(C)C)cc(C)c1Cl` the “activity change, negative = inhibition” value was inactive: -1.04%.
`O=C1C2CC=C(Cl)CC2C(=O)N1CCC[n+]1cccc2ccccc21` (stereo unspecified) was tested, and the Potency was inconclusive [inhibitor, full curve, poor fit].
For `COc1ccc(C2SCC(C(=O)O)N2C(C)=O)cc1OC` (stereo unspecified), the Potency was inconclusive [inhibitor, partial curve, poor fit].
In the case of `COC(=O)N/N=C/c1c(C)c(C(=O)c2ccc(F)cc2)n2ccccc12`, the “activity change, negative = inhibition” value is reported as inactive: -2.69%.
